Data published in the supplement of paper PMC4166925.
± gives the standard deviation of the averaged measurements. Over roughly 33,000 sequences, “E-score (dimensionless, -0.5 to 0.5)” has its median near -0.046; the highest 2% begin near 0.36. This is one part of the list.

Test system: T1, SpTbr T-box DNA-binding domain (GST fusion)
T1 sequence: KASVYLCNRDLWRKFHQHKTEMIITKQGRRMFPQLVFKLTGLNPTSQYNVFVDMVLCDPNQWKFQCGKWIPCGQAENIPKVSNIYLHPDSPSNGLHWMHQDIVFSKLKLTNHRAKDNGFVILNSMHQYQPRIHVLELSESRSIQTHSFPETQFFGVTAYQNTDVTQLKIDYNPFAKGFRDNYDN
Assay: PBM E-score of 8-mer (E-score (dimensionless, -0.5 to 0.5)); Tbr is Tbrain of the sea star Patiria miniata (Pm) or the sea urchin Strongylocentrotus purpuratus (Sp); higher = stronger binding preference; most listed sequences are background and not binding sites
Conditions: the construct has about 5 more residues each side
Outline: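 Primer extension turned Universal Agilent oligonucleotide arrays double-stranded. They were incubated with 200 nM protein in PBS (pH 7.5); the protein was a GST-fused Tbr T-box DNA-binding domain expressed in BL21 E. coli at 20 °C and purified on glutathione. Every ungapped 8-mer was scored from the scanned, quantified probe intensities, and the Universal PBM Analysis Suite gave each an enrichment E-score averaged over duplicate arrays.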

| Sequence | PBM E-score of 8-mer |
| --- | --- |
| CCCAAACC | -0.37 ± 0.025 |
| CAATAATA | -0.0063 ± 0.022 |
| AAGTGGAA | -0.0162 ± 0.013 |
| CAGCCTTA | -0.0359 ± 0.087 |
| CGAACCTC | 0.0575 ± 0.03 |
| ACTGGGCC | -0.262 ± 0.072 |
| AACGGTGC | 0.239 ± 0.047 |
| AGCACCGC | -0.0167 ± 0.064 |
| AGCTGAAG | -0.206 ± 0.042 |
| TCATTCAA | -0.246 ± 0.0059 |
| GGAGTGAA | 0.248 ± 0.026 |
| GTGTCGGA | 0.359 ± 0.00047 |
| TAGAAGCA | -0.0879 ± 0.037 |
| AGGTGTTG | 0.482 ± 0.0055 |
| AACCATAA | -0.12 ± 0.028 |
| ACCGCACC | 0.199 ± 0.0058 |
| CTGAGGGA | -0.0861 ± 0.029 |
| GCAGTTTA | 0.0494 ± 0.037 |
| GTACGCAA | -0.222 ± 0.032 |
| CCCGGCAC | 0.14 ± 0.021 |
| CCCAAGTA | -0.0628 ± 0.047 |
| CTAGCAGA | -0.0918 ± 0.062 |

| Sequence | PBM E-score of 8-mer |
| --- | --- |
| AATCAAGG | -0.146 ± 0.052 |
| GGGACCTA | -0.11 ± 0.03 |
| CGCACACG | 0.211 ± 0.061 |
| AGAGTCTA | -0.104 ± 0.066 |
| ATTTAAAA | -0.123 ± 0.031 |
| GTCAAGAA | -0.0862 ± 0.13 |
| ATTGTGAC | 0.167 ± 0.017 |
| CGCTACGA | -0.0527 ± 0.027 |
| CGTGCCCC | -0.303 ± 0.033 |
| CACAGGAG | -0.0284 ± 0.0074 |
| CTCGAACC | -0.115 ± 0.043 |
| CTGTGTGC | 0.000685 ± 0.012 |
| TAACAGTA | 0.158 ± 0.025 |
| ACAGTCAA | 0.109 ± 0.023 |
| ACGTTACT | -0.111 ± 0.012 |
| CATTGTCG | 0.038 ± 0.0095 |
| AACACAAA | 0.0449 ± 0.075 |
| TCAAAGCA | -0.0504 ± 0.042 |
| GCGAGCTA | 0.164 ± 0.0096 |
| AGAGTAAA | -0.0882 ± 0.073 |
| ATAGTAAC | 0.0143 ± 0.031 |
| GGACGCAA | 0.0148 ± 0.078 |

| Sequence | PBM E-score of 8-mer |
| --- | --- |
| ATGCGTCC | -0.0633 ± 0.0099 |
| ATAGTTCG | 0.113 ± 0.038 |
| CTGTGAAA | 0.396 ± 0.017 |
| CAGGCTAG | -0.0398 ± 0.0067 |
| ACGCACGA | -0.0484 ± 0.054 |
| CGTGTCAG | 0.25651 ± 0.00017 |
| AAATTCCT | -0.168 ± 0.076 |
| CCTCCAGC | -0.0602 ± 0.0064 |
| ATATACAT | -0.135 ± 0.057 |
| GAAACTAC | -0.0901 ± 0.0029 |
| CATTGTAG | -0.0184 ± 0.0066 |
| CTTGTTCC | -0.114 ± 0.067 |
| ATTGTTTA | 0.0521 ± 0.14 |
| GAACACTA | 0.013 ± 0.018 |
| AGGTATTG | 0.00318 ± 0.078 |
| ACGACCTC | 0.038 ± 0.0053 |
| GCACAGAA | -0.123 ± 0.043 |
| AGACGATC | -0.129 ± 0.039 |
| ACTGGGAC | -0.299 ± 0.018 |
| CCGGAGTA | -0.0192 ± 0.0016 |
| CATACCAA | -0.0982 ± 0.029 |
| CTGCGTTC | -0.226 ± 0.01 |

| Sequence | PBM E-score of 8-mer |
| --- | --- |
| GCACAGCA | 0.0886 ± 0.048 |
| AACAACGT | 0.00981 ± 0.00099 |
| CCCGCGGG | 0.0848 ± 0.048 |
| ATCGTCTG | -0.0889 ± 0.032 |
| GGACCGTA | -0.169 ± 0.014 |
| ACGTGCCA | 0.361 ± 0.033 |
| GGCGGCCA | -0.156 ± 0.03 |
| TATACTAA | -0.203 ± 0.029 |
| ATATTCGG | -0.222 ± 0.048 |
| ATTTACGC | 0.058 ± 0.12 |
| GCTTGCTA | -0.156 ± 0.02 |
| AGTTGAGA | 0.144 ± 0.083 |
| GGCGCCAA | 0.36 ± 0.038 |
| CGTCAGTC | -0.0269 ± 0.03 |
| AAGTTTCA | -0.0887 ± 0.0065 |
| CGCACACA | 0.285 ± 0.0053 |
| ACTATATA | 0.0257 ± 0.031 |
| CCCGACCC | -0.272 ± 0.033 |
| ACCGAGTC | -0.115 ± 0.05 |
| ACCGACAG | 0.124 ± 0.034 |
| CTGATAAA | -0.156 ± 0.15 |
| AGGCCCAG | -0.26 ± 0.049 |

| Sequence | PBM E-score of 8-mer |
| --- | --- |
| GATAGCCA | -0.19 ± 0.028 |
| CATGCTAC | -0.0996 ± 0.03 |
| CCGTGCTC | -0.2658 ± 0.0026 |
| CCTCGTCC | -0.186 ± 0.05 |
| CCTCTGAA | -0.242 ± 0.01 |
| GGTATGAC | -0.0529 ± 0.084 |
| ATATGTTC | -0.00847 ± 0.0029 |
| TTACAAAA | -0.255 ± 0.0077 |
| ATAATCAC | 0.111 ± 0.074 |
| GGCCCAGA | -0.2892 ± 0.0023 |
| AAGCCGAT | -0.0775 ± 0.016 |
| AGAAGATC | -0.0549 ± 0.0067 |
| CCCCGGGA | -0.0544 ± 0.0041 |
| ACTACCCA | -0.0986 ± 0.043 |
| CCTGCGGC | -0.265 ± 0.085 |
| AAACCACC | -0.108 ± 0.004 |
| CCGAGCTC | -0.276 ± 0.049 |
| AGCAACAT | -0.00653 ± 0.059 |
| CCAGTGCA | -0.196 ± 0.081 |
| AGGTCATA | -0.0955 ± 0.14 |
| GGACTAAC | -0.113 ± 0.02 |
